# Results taken from the supplement of paper PMC4723716.
# ± gives the uncertainty stated by the source. Over roughly 9,900 compounds, “viability index relative to DMSO control” has its median near 1; the lowest 2% begin near 0.85. This is one part of the list.
# Tested on: Plasmodium falciparum NF54 stage V gametocytes
# Test: viability index relative to DMSO control (fraction); higher = less gametocyte killing
# Conditions: 2.5 µM, library set: Broad Institute DOS, incubation time: 72 h
# Method in brief: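 P. falciparum NF54 stage V gametocytes in serum-free screening medium (0.75% gametocytemia, 1.25% hematocrit, 10 µl) were incubated with compound at 2.5 µM in 1,536-well plates for 72 hr at 37°C under low oxygen. Then 3 µl of 2.5 µM MitoTracker Red CMXRos plus 0.13% saponin was added for one to two hours. One field per well was imaged, 20–70 µm2 red particles were counted, and the viability index was the count divided by the plate mean of DMSO wells.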
row,Compound,viability index
1,CC(=O)N1[C@H](CO)[C@H]2c3ccccc3N(S(=O)(=O)c3ccccc3C)C[C@H]21,1.054 ± 0.0066
2,COc1ccccc1-c1ccc2c(c1)O[C@@H](CN(C)CC1CCOCC1)[C@H](C)CN([C@H](C)CO)S2(=O)=O,0.945 ± 0.027
3,COc1ccc([C@@H]2C/C=C\C[C@H](C(C)C)NC(=O)CCC(=O)N2)c(OC)c1,1.04 ± 0.025
4,C[C@H](CO)N1C[C@H](C)[C@@H](CN(C)C(=O)c2ccc(N3CCN(C)CC3)cc2)OCc2cnnn2CCCC1=O,1.06 ± 0.11
5,C[C@@H]1CN([C@@H](C)CO)C(=O)c2cc(NS(=O)(=O)c3ccc(Cl)cc3)ccc2O[C@@H](C)CCCCO[C@@H]1CN(C)Cc1ccncc1,1.024 ± 0.0085
6,COCC(=O)N1[C@H](CO)[C@@H]2c3ccccc3NC[C@@H]21,1.05 ± 0.024
7,CCN(C[C@H]1N[C@H](CO)[C@H]1c1ccccc1)C(=O)c1ccncc1,1.02 ± 0.053
8,Cc1noc(C)c1NC(=O)Nc1ccc2c(c1)C(=O)N([C@H](C)CO)C[C@@H](C)[C@@H](CN(C)Cc1ccc3c(c1)OCO3)OCCCC[C@H](C)O2,1.07 ± 0.079
9,N#C[C@@H]1[C@@H](c2ccccc2-c2ccccc2F)[C@H](CO)N1C(=O)c1cccc(F)c1,1.1 ± 0.13
10,COc1ccc(S(=O)(=O)N(C)C[C@@H]2Oc3ccc(NC(=O)Cc4cn(C)c5ccccc45)cc3C(=O)N([C@@H](C)CO)C[C@H]2C)cc1,0.958 ± 0.1
11,COc1ccc2c3c([nH]c2c1)[C@@H](CO)N(C[C@]31CCN(CC1)S(C)(=O)=O)C(=O)C1CCOCC1,1.07 ± 0.023
12,COc1ccccc1C(=O)N1C[C@@H]2[C@H](c3ccccc31)[C@@H](CO)N2C(=O)Cc1ccccc1,0.949 ± 0.13
13,O=C(C[C@H]1CC[C@H]2[C@@H](COC[C@H](O)CN2CCC(F)(F)F)O1)NCc1ccc2c(c1)OCO2,0.983 ± 0.063
14,CN1CCN(C(=O)C[C@H]2CC[C@H]3[C@@H](COC[C@H](O)CN3CC3CCCCC3)O2)CC1,0.984 ± 0.013
15,CCS(=O)(=O)Nc1ccc2c(c1)C(=O)N(C)C[C@@H](OC)[C@@H](C)CN(CC1CCCCC1)[C@@H](C)CO2,0.989 ± 0.074
16,O=C1[C@@H](Cc2ccc(F)cc2)CCn2cc(nn2)COC[C@H]2CCCN12,1.05 ± 0.071
17,N#C[C@@H]1[C@H](c2ccc(C3=CCCCC3)cc2)[C@@H](CO)N1S(=O)(=O)c1ccccc1,1.17 ± 0.12
18,Cc1cc(C(=O)Nc2ccc3c(c2)C(=O)N(C)[C@H]2CC[C@@H](CC(=O)NCc4ccc(-c5ccccc5)cc4)O[C@H]2CO3)no1,0.982 ± 0.012
19,O=C(NC[C@@H]1[C@@H](c2ccccc2)[C@H](CO)N1C(=O)Cc1ccncc1)C1CCC1,1.02 ± 0.046
20,C[C@@H](NC(=O)[C@H]1[C@H](CO)[C@H]2Cn3c(ccc(-c4ccccc4)c3=O)[C@H]2N1C)c1ccccc1,0.935 ± 0.054
21,CCCN(C)C[C@H]1OCCCC[C@@H](C)Oc2ccc(NC(=O)CCCN(C)C)cc2C(=O)N([C@@H](C)CO)C[C@H]1C,1.1 ± 0.031
22,COc1ccc(CNC(=O)C[C@@H]2CC[C@H](NC(=O)CN(C)C)[C@@H](CO)O2)cc1,1.08 ± 0.041
23,C[C@@H]1CN([C@@H](C)CO)C(=O)CCCn2cc(nn2)CO[C@@H]1CN(C)C(=O)Nc1cccc(C(F)(F)F)c1,0.984 ± 0.013

row,Compound,viability index
1,C[C@H]1C/C=C/C[C@@H](c2cccc(Cl)c2)NC(=O)[C@H](Cc2ccccc2)N(C)C(=O)c2ccccc2O1.C[C@H]1C/C=C\C[C@@H](c2cccc(Cl)c2)NC(=O)[C@H](Cc2ccccc2)N(C)C(=O)c2ccccc2O1,0.9285 ± 0.0058
2,COc1cccc(NC(=O)N2CC3(C2)[C@H](c2ccccc2)[C@H](CO)N3C(C)=O)c1,1.0455 ± 0.00073
3,CCS(=O)(=O)N1C[C@@]2(C1)CN(Cc1ccc3OCOc3c1)[C@@H](CO)c1c2c2ccc(OC)cc2n1C,1.05 ± 0.035
4,CCCNC(=O)N1CC[C@@]2(CC1)CN(Cc1cccc(OC)c1)[C@@H](CO)c1[nH]c3cc(OC)ccc3c21,1.03 ± 0.026
5,C[C@H]1CN([C@@H](C)CO)C(=O)c2cccc(NC(=O)Nc3ccc(F)cc3)c2O[C@H]1CN(C)S(=O)(=O)c1ccc(Cl)cc1,0.959 ± 0.098
6,COc1ccccc1C#Cc1ccc([C@H]2[C@@H](CO)N3CCCCN(C(=O)C4CCC4)C[C@@H]23)cc1,0.989 ± 0.21
7,COCC(=O)N1[C@@H]2c3ccc(C4=CCCCC4)c(=O)n3C[C@@H]2[C@@H](CO)[C@@H]1C(=O)N1CCN(C)CC1,1.09 ± 0.012
8,CC[C@H]1C/C=C\C[C@H](C(C)C)NC(=O)CCC(=O)N1,1.027 ± 0.01
9,CCCNC(=O)[C@H]1[C@H](CO)[C@H]2Cn3c(cccc3=O)[C@@H]1N2CCC(F)(F)F,1.04 ± 0.017
10,COc1cc(CN2C[C@@H]3N[C@H](C2)[C@@H]3c2ccc(-c3ccc(C#N)cc3)cc2)cc(OC)c1,0.913 ± 0.071
11,C[C@H](CO)N1C[C@H](C)[C@@H](CN(C)Cc2ccc(C(=O)O)cc2)Oc2ccc(NC(=O)CCN3CCOCC3)cc2CC1=O,0.971 ± 0.035
12,CCN(C[C@H]1[C@H](c2ccccc2)[C@H](CO)N1CC1CC1)C(=O)c1ccccn1,0.975 ± 0.054
13,C[C@H]1CN([C@@H](C)CO)C(=O)CCCn2nncc2CO[C@H]1CN(C)Cc1ccc2cccnc2c1,1.07 ± 0.011
14,CC(=O)N1[C@H](CO)[C@H](c2ccc(C3=CCCCC3)cc2)[C@@H]1CNC(=O)CN(C)C,1.016 ± 0.0023
15,N#C[C@H]1[C@H](c2ccccc2-c2ccccc2F)[C@@H](CO)N1C(=O)C1CCC1,1.17 ± 0.17
16,C[C@H](NC(=O)C[C@H]1CC[C@@H]2[C@H](COC[C@@H](O)CN2Cc2ccc(C(F)(F)F)cc2)O1)c1ccccc1,0.9829 ± 0.0018
17,C[C@@H]1CN([C@H](C)CO)C(=O)CCCn2nncc2CO[C@@H]1CN(C)S(=O)(=O)c1ccccc1C#N,1.13 ± 0.094
18,O=C(CCN1CCCCC1)N[C@H]1CC[C@H](CC(=O)N2CCC(Cc3ccccc3)CC2)O[C@H]1CO,0.999 ± 0.041
19,C/C=C/c1ccc2n(c1=O)C[C@H]1[C@H](CO)[C@@H](C(=O)N[C@@H](C)c3ccccc3)[C@@H]2N1Cc1cncnc1.C/C=C\c1ccc2n(c1=O)C[C@H]1[C@H](CO)[C@@H](C(=O)N[C@@H](C)c3ccccc3)[C@@H]2N1Cc1cncnc1,1.09 ± 0.091
20,O=C(N[C@H]1CC[C@H](CC(=O)N2CCOCC2)O[C@@H]1CO)c1cccc(F)c1,0.995 ± 0.03
21,COCC(=O)Nc1ccc2c(c1)OC[C@@H](C)N(Cc1ccccc1C(=O)O)C[C@@H](C)[C@H](OC)CN(C)C2=O,1.074 ± 0.0068
22,O=C(CCN1CCCCC1)N[C@H]1CC[C@@H](CCn2cc(-c3cccc(F)c3)nn2)O[C@@H]1CO,1.05 ± 0.089
23,CNC[C@H]1Oc2ccc(NC(=O)NC3CCCCC3)cc2CC(=O)N([C@@H](C)CO)C[C@H]1C,1.06 ± 0.061

row,Compound,viability index
1,CCCNC(=O)N(C)C[C@@H]1Oc2ncc(C#CC3CCCCC3)cc2C(=O)N([C@H](C)CO)C[C@H]1C,1.06 ± 0.018
2,COCC(=O)N1C[C@@H](C)[C@H](OC)CN(C)C(=O)c2ccc(NC(=O)c3ccc(-c4ccccc4)cc3)cc2OC[C@H]1C,1.11 ± 0.032
3,CN(C[C@@H]1N[C@H](CO)[C@@H]1c1ccc(-c2cccc(F)c2)cc1)C(=O)CC1CC1,0.99 ± 0.086
4,N#C[C@H]1[C@H](c2ccc(-c3cccc(F)c3)cc2)[C@@H](CO)N1c1nc(-c2ccccc2)cs1,1.12 ± 0.014
5,CN1C(=O)c2cc(NC(=O)Nc3ccccc3Cl)ccc2OC[C@@H]2O[C@H](CC(=O)O)CC[C@H]21,0.907 ± 0.024
6,O=C(NCCCN1CCOCC1)[C@H]1[C@H](CO)[C@H]2Cn3c(cccc3=O)[C@@H]1N2C(=O)NC1CCCC1,0.996 ± 0.034
7,O=C(C1CCC1)N1C[C@@H]2N[C@H](C1)[C@@H]2c1ccc(/C=C/c2ccccc2)cc1,0.799 ± 0.019
8,O=C(C[C@@H]1C=C[C@H](NC(=O)c2cnccn2)[C@@H](CO)O1)NCc1ccccc1F,1.09 ± 0.077
9,C[C@H]1CN([C@@H](C)CO)C(=O)Cc2cc(N(C)C)ccc2O[C@H]1CN(C)C(=O)NC1CCCCC1,0.9183 ± 0.0053
10,COc1ccc(-c2ccccc2[C@H]2[C@@H](CO)N(C(=O)C3CCC3)[C@H]2C#N)cc1,1.1 ± 0.11
11,C/C=C/c1ccc2n(c1=O)C[C@H]1[C@H](CO)[C@@H](C(=O)NCC(F)(F)F)N(C(=O)c3cccnc3)[C@@H]21.C/C=C\c1ccc2n(c1=O)C[C@H]1[C@H](CO)[C@@H](C(=O)NCC(F)(F)F)N(C(=O)c3cccnc3)[C@@H]21,0.992 ± 0.086
12,COc1cccc(-c2ccc3c(c2)[C@@H]2[C@@H](CCN2S(=O)(=O)c2ccccc2F)[C@H](CO)N3)c1,0.986 ± 0.13
13,CN1C(=O)c2cc(NC(=O)c3cccc(F)c3)ccc2OC[C@@H]2O[C@@H](CC(=O)NCc3ccccc3Cl)CC[C@H]21,0.999 ± 0.057
14,O=C(C1CCCCC1)N1[C@H](CO)[C@H]2c3ccccc3N(S(=O)(=O)c3ccccc3)C[C@H]21,1.02 ± 0.039
15,O=C(C[C@H]1CC[C@H]2[C@@H](COC[C@H](O)CN2CCc2ccccc2)O1)NCCCN1CCOCC1,1.04 ± 0.046
16,CCc1cnc(N2[C@@H](C#N)[C@@H](c3ccc(C4=CCCCC4)cc3)[C@@H]2CO)s1,1.05 ± 0.022
17,COCC(=O)N1[C@H](CO)[C@@H](c2ccccc2)C12CN(Cc1cc(F)ccc1F)C2,1.07 ± 0.023
18,CCC(=O)N1[C@H](CO)[C@H](c2ccccc2)[C@H]1CN(CC1CCC1)S(C)(=O)=O,0.9339 ± 0.008
19,CCCN(C)C[C@H]1Oc2cc(/C=C/c3ccccc3)ccc2S(=O)(=O)N([C@H](C)CO)C[C@H]1C,1.05 ± 0.026
20,CN1CCN(C(=O)C[C@H]2CC[C@H]3[C@H](COc4ccc(NC(=O)c5cccs5)cc4C(=O)N3C)O2)CC1,1.04 ± 0.038
21,CCCNC(=O)N(C)C[C@@H]1[C@@H](c2ccccc2)[C@H](CO)N1C(=O)c1ccccc1,0.953 ± 0.014
22,CO[C@H]1CN(C)C(=O)c2ccc(NC(=O)c3nc4ccccc4s3)cc2OC[C@H](C)N(Cc2cccnc2)C[C@H]1C,1.051 ± 0.0049
23,CCC(=O)N1CC2(C1)[C@@H](c1ccc(-c3cccc(C)c3)cc1)[C@H](CO)N2S(C)(=O)=O,1.1 ± 0.019
